# Experimental data from PubChem BioAssay AID624418 (National Center for Advancing Translational Sciences (NCATS), 2012).
# The whole screen tested about 410,000 compounds, of which about 530 (0.13%) were called active. Inconclusive means that the source gave no clear call. Such entries were picked first, then a sample of the others. Calls come from the whole dose curve; as a rule, active = well fitted inhibition curve with a large enough effect; inconclusive = small, poorly fitted or top-dose-only effect, or another doubt; inactive = no such curve, though single readings can be large or run the other way. Where the call is inconclusive, the potency comes from a doubtful curve fit.
# Test: qHTS of GLP-1 Receptor Inverse Agonists: Cytotox Screen
# Conditions: HEK293 cAMP-luciferase reporter cells, luminescence, 24 h; activity change, negative = inhibition: at 38.3 µM (top of the series) unless noted
# Method in brief: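 MLSMR compounds, 24 hr on cells at 37 deg C/5% CO2; luminescence after luciferase reagent (12 min RT). Inhibition counted as the undesired cytotoxic outcome.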
# % is set by controls: 0 for no effect and ±100 for the full control effect; potency is the fitted concentration of half-maximal effect.
SMILES,Potency,"activity change, negative = inhibition"
O=C(O)c1cc([N+](=O)[O-])ccc1NCc1ccccc1,"inconclusive: 28.2 µM [inhibitor, single point]",
Cc1cc(C=O)c(C)n1-c1cccc(C(=O)O)c1,,inactive: 4.28%
Cc1cc(/N=C/C=C2\N(C)c3ccccc3C2(C)C)n(CCC#N)n1,"inconclusive: 12.6 µM [inhibitor, partial curve, poor fit]",
COc1ccccc1/C=N\Nc1cc(C)nc(-n2nc(C)cc2C)n1,"inconclusive: 1 µM [inhibitor, full curve]",
CC(C)OCCCNc1ncnc2c1[nH]c1ccccc12,,inactive: -7.03%
Nc1nc(Nc2ccccc2)nc(NC2CCCCC2)c1[N+](=O)[O-],"inconclusive: 28.2 µM [inhibitor, single point]",
O=C(c1ccc(=O)[nH]n1)N1CCN(S(=O)(=O)c2ccc3ccccc3c2)CC1,,inactive: 9.28%
COC(=O)CCCCCNC(=S)Nc1ccc2[nH]c(=O)[nH]c2c1,"inconclusive: 0.447 µM [inhibitor, full curve, poor fit]",
CCN(CC)c1ccc(/C=N/N2CCOCC2)c(O)c1,,inactive: -10.7%
O=C(Nc1cccc(OC(F)(F)F)c1)C1Cc2c(-c3ccc4c(c3)OCO4)ccnc2O1 (stereo not given),,inactive: -3.88%
CC1Cc2nc(SCC(=O)Nc3ccc4c(c3)OCO4)n(Cc3ccccc3)c(=O)c2S1 (stereo not given),"inconclusive: 3.98 µM [inhibitor, full curve, poor fit]",
CCOc1cc(/C=C2/C(=O)ON=C2C)ccc1O,,inactive: 1.07%
O=[N+]([O-])c1cccc(SSc2cccc([N+](=O)[O-])c2)c1,"inconclusive: 10 µM [inhibitor, partial curve]",
COc1ccc(CCNC(=O)c2ccc(-c3cccc([N+](=O)[O-])c3)o2)cc1OC,"inconclusive: 15.8 µM [inhibitor, single point]",
O=C(N/N=C/c1cc(Br)c(Br)o1)c1cccnc1,"inconclusive: 7.08 µM [inhibitor, partial curve, poor fit]",
NS(=O)(=O)c1ccc(N/N=C/c2cn(-c3ccccc3)nc2-c2cccs2)cc1,"inconclusive: 17.8 µM [inhibitor, partial curve, poor fit]",
Cc1cc(NC(=O)COc2ccccc2)cc(-c2nc3ccccc3o2)c1O,,inactive: 6.64%
COc1cccc2sc(N(CCN(C)C)C(=O)/C=C/c3cccs3)nc12,"inconclusive: 31.6 µM [inhibitor, single point]",
CCCC(=O)Nc1ccc(-c2nc3cc(C)c(C)cc3o2)cc1,,inactive: -15.3%
Cc1cc(-n2[nH]c(C)c(C)c2=O)nc(-c2ccccc2O)n1,,inactive: 7.03%
CCCCCc1ccc(C(=O)CCC(=O)OCC(=O)N(CC)c2c(N)n(Cc3ccccc3)c(=O)[nH]c2=O)cc1,"inconclusive: 12.6 µM [inhibitor, single point]",
CC1CCN(c2ccc(NC(=O)c3ccc([N+](=O)[O-])o3)cc2)CC1,"inconclusive: 8.91 µM [inhibitor, partial curve]",
Cc1ccc(NC(=O)CSCC(=O)Nc2ccccc2N2CCCCC2)cc1,"inconclusive: 28.2 µM [inhibitor, single point]",
O=C(NC(=S)NCc1ccccc1)C1CCCCC1,"inconclusive: 28.2 µM [inhibitor, single point]",

SMILES,Potency,"activity change, negative = inhibition"
O=[N+]([O-])c1cc(Br)c(O)c(/C=N/Nc2nc3ccccc3s2)c1,"inconclusive: 1 µM [inhibitor, full curve]",
COc1cc(SC#N)ccc1N=Cc1c(C)[nH]n(-c2ccc(C)cc2C)c1=O,"inconclusive: 3.55 µM [inhibitor, partial curve, poor fit]",
CC1=C(C#N)C(c2cccnc2)C2=C(CCCC2=O)N1 (stereo not given),,inactive: 84.7%
COc1ccc(-c2cc(NC=O)c3ncc(-c4ccc(OC)c(OC)c4)n3c2)cc1,"inconclusive: 1 µM [inhibitor, full curve]",
CC1(C)CCN2CCC(C)(C)c3c(O)ccc1c32,"inconclusive: 12.6 µM [inhibitor, single point]",
CC(C)n1c(SCC(=O)Nc2ccc(F)cc2)nc2c(oc3ccccc32)c1=O,,inactive: -0.524%
CC(C)C12CN3CC(C(C)C)(CN(C1)C3c1ccc(OCc3ccccc3)cc1)C2=O (stereo not given),,inactive: -5.12%
CCCCn1c(-c2cc(Cl)ccc2OC)n[nH]c1=S,"inconclusive: 12.6 µM [inhibitor, single point]",
CC(C)(C)c1cc(CN2CCCC(O)C2)c(O)c(C(C)(C)C)c1 (stereo not given),"inconclusive: 28.2 µM [inhibitor, single point]",
COC(=O)c1cc(S(=O)(=O)NCC2CCN(Cc3ccc(C)cc3)CC2)c[nH]1,inactive,
CCOC(=O)Nc1ccc2c(c1)N(C(=O)CN(CC)CC)c1ccccc1CC2,"inconclusive: 22.4 µM [inhibitor, single point]",
CS(=O)(=O)c1nc(-c2ccccc2)cc(-c2ccccc2)c1C#N,"inconclusive: 28.2 µM [inhibitor, single point]",
O=C(CCNS(=O)(=O)c1cccc2nsnc12)Nc1ccc(F)cc1,,inactive: -0.322%
CCN(CC)CCNC(=S)Nc1ccc2nc(N3CCN(CC)CC3)cc(C)c2c1,"inconclusive: 3.16 µM [inhibitor, full curve]",
OC(CN1C2=NCCN2c2ccccc21)c1ccc(Br)cc1 (stereo not given),"inconclusive: 14.1 µM [inhibitor, single point]",
O=C(CCCN1C(=O)/C(=C/c2ccccc2Cl)SC1=S)Nc1cccnc1,"inconclusive: 3.55 µM [inhibitor, full curve]",
NC(=O)c1ccc(-n2nnnc2Oc2ccccc2)cc1,,inactive: 7.87%
CCOC(=O)c1ccc(NC(=S)Nc2cccc(N)n2)cc1,"inconclusive: 28.2 µM [inhibitor, partial curve, poor fit]",
COc1ccc2c(C)nc(Nc3nc(C)cc(C)n3)nc2c1,"inconclusive: 4.47 µM [inhibitor, full curve, poor fit]",
CCN1CCN(Cc2ccc(NC(=O)c3cc(NC(=O)c4cncc(-c5cccs5)c4)cc(OC)c3)cc2C(F)(F)F)CC1,"inconclusive: 15.8 µM [inhibitor, single point]",
COc1ccc(C(=O)NCCS(=O)(=O)N(C)C2CCCCC2)cc1,"inconclusive: 10 µM [inhibitor, single point]",
C[C@H]1NC(=O)[C@@]2(C)[C@@H](c3ccccc3)[C@H]3COc4ccccc4[C@H]3N2C1=O,"inconclusive: 1.26 µM [inhibitor, full curve, poor fit]",
COc1cc(NC(=S)N2CCN(C/C=C/c3ccccc3)CC2)cc(OC)c1,,inactive: 7%
Cc1ccnc(NC(=O)C2CCN(S(=O)(=O)c3c(C)c(C)cc(C)c3C)CC2)c1,"inconclusive: 14.1 µM [inhibitor, single point]",

SMILES,Potency,"activity change, negative = inhibition"
Clc1ccc(C2=Nn3c(nnc3-c3n[nH]c4c3CCC4)SC2)cc1,"inconclusive: 3.55 µM [inhibitor, partial curve, poor fit]",
CCN(CC)C(=N)/C(C#N)=N/Nc1ccccc1,"inconclusive: 28.2 µM [inhibitor, single point]",
COc1cccc(-c2csc(N3CCN(Cc4ccccc4)CC3)n2)c1,,inactive: 4.02%
CCc1nc2ccccc2c(C(=O)Oc2ccc(C(=O)OC)cc2)c1C,"inconclusive: 12.6 µM [inhibitor, single point]",
Cc1ccccc1/C=C\c1nc2ccccc2c(=O)[nH]1,"inconclusive: 28.2 µM [inhibitor, single point]",
S=C(NCCc1ccccc1)Nc1ccc(Cl)cc1,"inconclusive: 14.1 µM [inhibitor, single point]",
CN(C)CCNC(=O)/C(=C/c1ccc(-c2ccc(Cl)cc2Cl)o1)NC(=O)c1ccccc1,"inconclusive: 28.2 µM [inhibitor, single point]",
c1ccc(Oc2nc(-c3ccccn3)nc3ccccc23)cc1,"inconclusive: 0.794 µM [inhibitor, full curve, poor fit]",
CCOC(=O)CSc1cccc2cccnc12,active: 3.55 µM,
Cc1ccccc1NC(=S)NC1CCCC1,"inconclusive: 7.94 µM [inhibitor, single point]",
CC1=C(C(=O)OC2CCCCC2)C(c2ccccc2)NC(=O)N1 (stereo not given),"inconclusive: 28.2 µM [inhibitor, single point]",
CCOC(=O)C1(Cc2ccc(Cl)cc2)CCN(Cc2nccn2CC)CC1,"inconclusive: 12.6 µM [inhibitor, single point]",
CC(C)(C)c1ccc(-c2nnc(-c3ccccc3NC(=O)c3cccc(C(F)(F)F)c3)o2)cc1,,inactive: -7.03%
CC(=O)N1CCN(C(=O)CC2OC(=O)c3ccccc32)CC1 (stereo not given),,inactive: -10.9%
CCN(CC)C(=O)CC(c1cc(OC)c(OC)c(OC)c1)c1c(OC)cc(OC)c2c(-c3ccccc3)cc(=O)oc12 (stereo not given),,inactive: 5.26%
CCOc1ccc(-c2[nH]ncc2Oc2ccccc2OCC)c(O)c1,"inconclusive: 12.6 µM [inhibitor, partial curve]",
O=C(C1CCN(S(=O)(=O)c2cccc3cccnc23)CC1)N1CCn2c1nc1ccccc12,,inactive: -10.8%
CC(C)C(CCNC1CCN(C)CC1)c1ccc(Cl)cc1 (stereo not given),"inconclusive: 12.6 µM [inhibitor, single point]",
Nn1cc(-c2ccccc2)nc1SCC(=O)Nc1ccc2c(c1)OCO2,,inactive: -12.4%
COCCn1c(=NC(=O)c2sc3ccccc3c2Cl)sc2cc(S(N)(=O)=O)ccc21,"inconclusive: 28.2 µM [inhibitor, single point]",
COc1ccc(NC(=O)c2cc3ccccc3o/c2=N\NS(=O)(=O)c2ccc(C)cc2)cc1,,inactive: 4.27%
CCOC(=O)Nc1sc2c(c1C(=O)OCC)CCC2,,inactive: 2.54%
